# Source: the supplement of paper PMC12217912
# The list shows a part of the results. Sequences were assembled here from the parent chain. Values near 0.05 are background.
# B1: TEV protease; numbered along this chain (parent)
# chain: MGESLFKGPRDYNPISSSICHLTNESDGHTTSLYGIGFGPFIITNKHLFRRNNGTLVVQSLHGVFKVKDTTTLQQHLVDGRDMIIIRMPKDFPPFPQKLKFREPQREERICLVTTNFQTKSMSSMVSDTSCTFPSGDGIFWKHWIQTKDGQCGSPLVSTRDGFIVGIHSASNFTNTNNYFTSVPKNFMELLTNQEAQQWVSGWRLNADSVLWGGHKVFMVKPEEPFQPVKEATQL
# Variants of: B1
# Test: raw area under fraction-flipped curve 0-4 h after induction (AUC4h, not background-subtracted), DNA-recorder readout of cleavage of the substrate (dimensionless); higher = more cleavage of the substrate by the protease variant
# Conditions: temperature: 34 °C; time window: 0-4 h after rhamnose induction
# 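Also: Bxb1 expression induced with 0.2% (w/v) L-rhamnose at OD600 near 0.5, cultures sampled hourly, flipped fraction per protease–substrate barcode pair counted by paired-end Illumina sequencing.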
Variant,area with substrate ENLYFCS,area with substrate ENLYFDS,area with substrate ENLYFES,area with substrate ENLYFGS,area with substrate ENLYFHS,area with substrate ENLYFIS,area with substrate ENLYFKS,area with substrate ENLYFMS,area with substrate ENLYFPS,area with substrate ENLYFRS,area with substrate ENLYFSS,area with substrate ENLYFTS,area with substrate ENLYFVS,area with substrate ENLYFWS,area with substrate ENLYFYS,area with substrate ENLYFLS,area with substrate ENLYFNS,area with substrate ENLYFFS
MGESLFKGPRDYNPISSMICHLTNESDGHTTSLYGIGFGPFIITNKHLFRRNNGTLVVQSLHGVFKVKDTTTLQQHLVDGRDMIIIRMPKDFPPFPQKLKFREPQREERICLVTTNFQTKSMSSMVSDTSCTFPSGDGIFWKHWIQTKDGQCGSPLVSTRDGFIVGIHSASNFTNTNNYFTSVPKNFMELLTNQEAQQWVSGWRLNADSVLWGGHKVFMVKPEEPFQPVKEATQL [S18M],0.0698,0.0676,0.0613,0.0791,0.0707,0.062,0.0532,0.0597,0.0718,0.0348,0.0571,0.0552,0.0444,0.0544,0.0603,,,
MGESLFKGPRDYNPISSSICHLTNESDGHTTSLYGIGFGPFIITNKHLFRRNNGTLVVQSLHGVFKVKDTTTLQQHLVDGRDFIIIRMPKDFPPFPQKLKFREPQREERICLVTTNFQTKSMSSMVSDTSCTFPSGDGIFWKHWIQTKDGQCGSPLVSTRDGFIVGIHSASNFTNTNNYFTSVPKNFMELLTNQEAQQWVSGWRLNADSVLWGGHKVFMVKPEEPFQPVKEATQL [M83F],0.0595,,,,,,0.0681,0.0668,0.0566,0.0826,0.0517,0.0701,,0.0795,,0.0646,,
MGESLFKGPRDYNPISSSICHLTNESDGHTTSLYGIGFGPFIITNKHLFRRNNGTLRVQSLHGVFKVKDTTTLQQHLVDGRDMIIIRMPKDFPPFPQKLKFREPQREERICLVTTNFQTKSMSSMVSDTSCTFPSGDGIFWKHWIQTKDGQCGSPLVSTRDGFIVGIHSASNFTNTNNYFTSVPKNFMELLTNQEAQQWVSGWRLNADSVLWGGHKVFMVKPEEPFQPVKEATQL [V57R],0.0667,0.0576,0.0506,0.0435,,0.0527,,0.0452,,,0.0553,0.0618,0.0664,0.0656,,,0.0884,
MGESLFKGPRDYNPISSSICHLTNESDGHTTSLYGIGFGPFIITNKHLFRRNNGTLVVQSLHGVFKVKDTTTLQQHLVDGRDMIIIRMPKDFPPFPQKLKFREVQREERICLVTTNFQTKSMSSMVSDTSCTFPSGDGIFWKHWIQTKDGQCGSPLVSTRDGFIVGIHSASNFTNTNNYFTSVPKNFMELLTNQEAQQWVSGWRLNADSVLWGGHKVFMVKPEEPFQPVKEATQL [P104V],0.0523,0.0545,0.0542,0.106,0.0551,0.0563,0.0554,0.0555,0.0702,,0.0565,0.0616,0.0675,,,0.0512,0.0503,
MGESLFKGPRDYNPISSSICHLTNESDGHTTSLYGIGFGPFIITNKHLFRRNNGTLVVQSLHGVFKVKDTTTLQQHLVDGRDMIIIRMPKDFPPFPQKLKFREPQREERICLVTMNFQTKSMSSMVSDTSCTFPSGDGIFWKHWIQTKDGQCGSPLVSTRDGFIVGIHSASNFTNTNNYFTSVPKNFMELLTNQEAQQWVSGWRLNADSVLWGGHKVFMVKPEEPFQPVKEATQL [T115M],0.0452,0.0688,0.0692,0.0566,0.0898,0.0576,,,0.0611,0.0542,,,0.053,0.046,0.053,,0.0604,0.0593
MGESLFKGPRDYNPISSSICHLTNESDGHTTSLYGIGFGPFIITNKHLFRRNNGTLVVQSLHGVFKVKDTTTLQQHLVDGRDMIIIRMPKDFPPFPQKLKFREPQREERICLVTGNFQTKSMSSMVSDTSCTFPSGDGIFWKHWIQTKDGQCGSPLVSTRDGFIVGIHSASNFTNTNNYFTSVPKNFMELLTNQEAQQWVSGWRLNADSVLWGGHKVFMVKPEEPFQPVKEATQL [T115G],0.0511,,0.0438,0.0232,0.0595,0.0623,,,,,,,0.0536,,,,,0.0681
MGESLFKGPRDYNPISSSICHLTNESDGHTTSLYGIGFGPFIITNKHLFRRNNGTLVVQSLHGGFKVKDTTTLQQHLVDGRDMIIIRMPKDFPPFPQKLKFREPQREERICLVTTNFQTKSMSSMVSDTSCTFPSGDGIFWKHWIQTKDGQCGSPLVSTRDGFIVGIHSASNFTNTNNYFTSVPKNFMELLTNQEAQQWVSGWRLNADSVLWGGHKVFMVKPEEPFQPVKEATQL [V64G],0.057,,0.0668,,,0.0576,,0.0646,0.0583,0.055,,0.048,,0.0521,,,0.0682,0.0727
MGESLFKGPRDYNPISSSICHLTNESDGHTTSLYGIGFGPFIITNKHLFRRNNGTLVVQSLHGVFKVKDTTTLQQHPVDGRDMIIIRMPKDFPPFPQKLKFREPQREERICLVTTNFQTKSMSSMVSDTSCTFPSGDGIFWKHWIQTKDGQCGSPLVSTRDGFIVGIHSASNFTNTNNYFTSVPKNFMELLTNQEAQQWVSGWRLNADSVLWGGHKVFMVKPEEPFQPVKEATQL [L77P],0.0474,,,,0.0539,0.0694,0.0615,0.0539,,0.0669,,,0.0665,0.0454,0.0572,0.0622,,
MGESLFKGPRDYNPISSSICHLTNESDGHTTSLYGIGFGWFIITNKHLFRRNNGTLVVQSLHGVFKVKDTTTLQQHLVDGRDMIIIRMPKDFPPFPQKLKFREPQREERICLVTTNFQTKSMSSMVSDTSCTFPSGDGIFWKHWIQTKDGQCGSPLVSTRDGFIVGIHSASNFTNTNNYFTSVPKNFMELLTNQEAQQWVSGWRLNADSVLWGGHKVFMVKPEEPFQPVKEATQL [P40W],0.0746,0.055,0.0653,,,0.0559,0.0659,0.0643,0.0572,0.0653,,,,,,0.0383,,0.0622
MGESLFKGPRDYNPISSSICHLTNESDGHTTSLYGIGFGPFIITNKHLFRRNNGTLVVQSLHGVFKVKDTTTLQQHLVDGRDMIIIRMPKDFPPFPQKLKFREPQREERICLVTTNFQTCSMSSMVSDTSCTFPSGDGIFWKHWIQTKDGQCGSPLVSTRDGFIVGIHSASNFTNTNNYFTSVPKNFMELLTNQEAQQWVSGWRLNADSVLWGGHKVFMVKPEEPFQPVKEATQL [K120C],0.0664,0.0641,0.0679,,0.0752,0.0579,,0.0722,0.0688,,,0.0506,0.0647,0.0328,,0.0579,,0.0693
MGESLFKGPRDYNPISSSICHLTNESDGHTTSLYGIGFGPFIITNKHLFRRNNGTLVVQSLHGVFKVKDTTTLQQHLVDGRDMIIIRMPKDFPPFPQKLKFREPQREERICLVTTNFQTKSMSSMVSDTSCTFPSGDGIFSKHWIQTKDGQCGSPLVSTRDGFIVGIHSASNFTNTNNYFTSVPKNFMELLTNQEAQQWVSGWRLNADSVLWGGHKVFMVKPEEPFQPVKEATQL [W141S],0.052,,0.0506,0.0591,0.0545,0.0522,,0.0644,0.0503,0.0511,,0.0512,,0.0561,,,0.0422,0.0534
MGESLFKGPRDYNPISSSICHLTNESDGHTTSLYGIGFGPFIITNKHLFRRNNGTLVVQSLHGVFKVKDTTTLQQHLVNGRDMIIIRMPKDFPPFPQKLKFREPQREERICLVTTNFQTKSMSSMVSDTSCTFPSGDGIFWKHWIQTKDGQCGSPLVSTRDGFIVGIHSASNFTNTNNYFTSVPKNFMELLTNQEAQQWVSGWRLNADSVLWGGHKVFMVKPEEPFQPVKEATQL [D79N],0.0561,,,,,0.0503,,0.0534,0.0599,0.0574,0.0522,,,,,,0.0658,0.0318
MGESLFKGPRDYNPISSSICHLTNESDGHTTSLYGIGFGPFIITNKHLFRRNNGTLVVQSLHGVFKVKDTTTLQQHLVDGRDMIIIRMPKDFPPFPQKLKFREPQREERICLVTTNFQTKSMSSMVSDTSCTFPSGDGIFWKHWIQTKDGQCGSPLVSTRDGFIVGIHSASNFTNTNNYFTSVPKNFMELLTNQEAQQWVSGWRLNADSVLWGGHNVFMVKPEEPFQPVKEATQL [K216N],0.0627,0.0598,0.0572,,0.0618,0.0587,0.0581,0.0649,0.0599,0.0709,0.0636,,,,,0.0479,0.0427,
MGESLFKGPRDYNPISSSICHLTNESDGHTTSLYGIGFGPFIITNKHLFRRNNGTLVVQSLHGVFKVKDTTTLQQHLVDGRDMIIIRMPKDFPPFPQKLKFREPQREERICLVTTNFQTKSMSSMVSDTSCTFPSGDGIFWKHWIQTKDGQCGSPLVSTRDGFIVGIHSASCFTNTNNYFTSVPKNFMELLTNQEAQQWVSGWRLNADSVLWGGHKVFMVKPEEPFQPVKEATQL [N172C],0.061,,,0.066,,0.0509,,0.0593,,0.0675,0.0627,0.0532,0.0666,,,,0.0542,0.0752
MGESLFKGPRDYNPISSSICHLTNESDGHTTSLYGIGFGPFIITWKHLFRRNNGTLVVQSLHGVFKVKDTTTLQQHLVDGRDMIIIRMPKDFPPFPQKLKFREPQREERICLVTTNFQTKSMSSMVSDTSCTFPSGDGIFWKHWIQTKDGQCGSPLVSTRDGFIVGIHSASNFTNTNNYFTSVPKNFMELLTNQEAQQWVSGWRLNADSVLWGGHKVFMVKPEEPFQPVKEATQL [N45W],0.0681,0.055,0.0659,0.0719,,0.059,0.0514,0.0596,0.055,0.0608,0.0513,0.0595,0.035,0.0565,0.0557,,0.0659,0.0674
MGESLFKGPRDYNPISSSICHLTNESDGHTTSLYGIGFGPFIITNKHLFRRNNGTLVVQSLHGVFKVKDTTTLQQHLVDGRDMIIIRMPKDFPPFPQKLKFREPQREERICLVTTNFQTKSMSSMVSDTSCTFPSGPGIFWKHWIQTKDGQCGSPLVSTRDGFIVGIHSASNFTNTNNYFTSVPKNFMELLTNQEAQQWVSGWRLNADSVLWGGHKVFMVKPEEPFQPVKEATQL [D137P],0.0757,0.0559,0.0479,,,,,,0.0544,,,0.0635,,,,,,0.0798
MGESLFKGPRDANPISSSICHLTNESDGHTTSLYGIGFGPFIITNKHLFRRNNGTLVVQSLHGVFKVKDTTTLQQHLVDGRDMIIIRMPKDFPPFPQKLKFREPQREERICLVTTNFQTKSMSSMVSDTSCTFPSGDGIFWKHWIQTKDGQCGSPLVSTRDGFIVGIHSASNFTNTNNYFTSVPKNFMELLTNQEAQQWVSGWRLNADSVLWGGHKVFMVKPEEPFQPVKEATQL [Y12A],0.0642,0.0497,0.059,0.0243,,0.0534,0.0755,0.0693,0.0392,0.0578,0.053,,0.0764,0.063,0.059,,0.0578,0.0635
MGESLFKGPRDYNPISSSICHLTNESDGHTTSLYGIGFGPFIITNKHLFRRNNGTLVVQSLHGVFKVKDTTTLQQHLVDGRDMIIIRMPKDFPPFPQKLKFREPQREERICLVTTNFQTKSMSSMVSDTSCTFPSGDGIFWKHWIQTKDGQCGSPLVSTRDGFIVGIHSASNFYNTNNYFTSVPKNFMELLTNQEAQQWVSGWRLNADSVLWGGHKVFMVKPEEPFQPVKEATQL [T174Y],0.0306,,0.0531,0.0901,0.0613,0.0604,0.0747,0.0695,,,0.0727,0.057,,,,,,0.0766
MGESLFKGPRDYNPISSSICHLTNESDGHTTSLYGIGFGPFIITNKHLFRRNNGTLVVQSLHGVFKVKDTTTLQQHLVDGRDMIIIRMPKDFPPFPQKLKFREPQREERICLVTTNFQTKSMSSMVSDTSCTFYSGDGIFWKHWIQTKDGQCGSPLVSTRDGFIVGIHSASNFTNTNNYFTSVPKNFMELLTNQEAQQWVSGWRLNADSVLWGGHKVFMVKPEEPFQPVKEATQL [P134Y],0.0707,,0.0492,0.0556,,0.0734,0.0611,0.0613,0.0677,0.0442,0.0557,0.0583,0.0536,0.0603,0.0585,0.0542,0.0574,
